The supplement of paper PMC8728848
The other results are listed elsewhere or left out.

How the values were obtained:
Experiment in all cases: glycan array binding signal (z-score within array); higher = stronger binding
Settings in all cases: glycan notation: IUPAC condensed, linker removed
[1] = molecular target: Gal(a1-3)Gal(b1-4)GlcNAc(b1-2)Man
Method in brief: (§1)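 Glycan array data came from 3228 arrays in the Consortium for Functional Glycomics database, and only arrays with an available protein sequence were kept. Glycan names were put into IUPAC-condensed notation, and columns mapping to the same glycan were averaged. The binding signal is a within-array Z-score, averaged across arrays of one protein sequence run at different concentrations or buffers and across linkers. A negative Z-score can be read as non-binding.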

[2] = molecular target: Gal(a1-3)Gal(b1-4)GlcNAc(b1-2)Man(a1-3)[Gal(a1-3)Gal(b1-4)GlcNAc(b1-2)Man(a1-6)]Man(b1-4)GlcNAc(b1-4)GlcNAc
Method in brief: as §1

[3] = molecular target: Gal(a1-3)Gal(b1-4)GlcNAc(b1-3)GalNAc
Method in brief: as §1

[4] = molecular target: Gal(a1-3)Gal(b1-4)GlcNAc(b1-6)GalNAc
Method in brief: as §1

[5] = molecular target: Gal(a1-3)Gal(b1-4)[Fuc(a1-3)]GlcNAc
Method in brief: as §1

[6] = molecular target: Gal(a1-3)Gal(b1-4)[Fuc(a1-3)]GlcNAc(b1-2)Man(a1-3)[Gal(a1-3)Gal(b1-4)[Fuc(a1-3)]GlcNAc(b1-2)Man(a1-6)]Man(b1-4)GlcNAc(b1-4)GlcNAc
Method in brief: as §1

Gal(a1-3)GalNAc = molecular target: Gal(a1-3)GalNAc
Method in brief: as §1

[7] = molecular target: Gal(a1-3)[Gal(a1-4)]Gal(b1-4)GlcNAc
Method in brief: as §1

[8] = molecular target: Gal(a1-4)Gal(b1-3)GlcNAc(b1-2)Man(a1-3)[Gal(a1-4)Gal(b1-3)GlcNAc(b1-2)Man(a1-6)]Man(b1-4)GlcNAc(b1-4)GlcNAc
Method in brief: as §1

Gal(a1-4)Gal(b1-4)Glc = molecular target: Gal(a1-4)Gal(b1-4)Glc
Method in brief: as §1

Gal(a1-4)Gal(b1-4)GlcNAc = molecular target: Gal(a1-4)Gal(b1-4)GlcNAc
Method in brief: as §1

[9] = molecular target: Gal(a1-4)Gal(b1-4)GlcNAc(b1-2)Man(a1-3)[Gal(a1-4)Gal(b1-4)GlcNAc(b1-2)Man(a1-6)]Man(b1-4)GlcNAc(b1-4)GlcNAc
Method in brief: as §1

[10] = molecular target: Gal(a1-4)Gal(b1-4)GlcNAc(b1-3)Gal(b1-4)Glc
Method in brief: as §1

Gal(a1-4)GlcNAc = molecular target: Gal(a1-4)GlcNAc
Method in brief: as §1

Gal(a1-6)Glc = molecular target: Gal(a1-6)Glc
Method in brief: as §1

Gal(b1-2)Gal = molecular target: Gal(b1-2)Gal
Method in brief: as §1

Gal(b1-3)Gal = molecular target: Gal(b1-3)Gal
Method in brief: as §1

Gal(b1-3)Gal(b1-4)GlcNAc = molecular target: Gal(b1-3)Gal(b1-4)GlcNAc
Method in brief: as §1

Gal(b1-3)GalNAc = molecular target: Gal(b1-3)GalNAc
Method in brief: as §1

[11] = molecular target: Gal(b1-3)GalNAc(a1-3)[Fuc(a1-2)]Gal(b1-4)Glc
Method in brief: as §1

[12] = molecular target: Gal(b1-3)GalNAc(a1-3)[Fuc(a1-2)]Gal(b1-4)GlcNAc
Method in brief: as §1

Gal(b1-3)GalNAc(b1-3)Gal = molecular target: Gal(b1-3)GalNAc(b1-3)Gal
Method in brief: as §1

[13] = molecular target: Gal(b1-3)GalNAc(b1-3)Gal(a1-4)Gal(b1-4)Glc
Method in brief: as §1

[14] = molecular target: Gal(b1-3)GalNAc(b1-4)Gal(b1-4)Glc
Method in brief: as §1

[15] = molecular target: Gal(b1-3)GalNAc(b1-4)[Neu5Ac(a2-3)]Gal(b1-4)Glc
Method in brief: as §1

Gal(b1-3)GlcNAc = molecular target: Gal(b1-3)GlcNAc
Method in brief: as §1

[16] = molecular target: Gal(b1-3)GlcNAc(a1-3)Gal(b1-4)GlcNAc
Method in brief: as §1

[17] = molecular target: Gal(b1-3)GlcNAc(a1-6)Gal(b1-4)GlcNAc
Method in brief: as §1

Gal(b1-3)GlcNAc(b1-2)Man = molecular target: Gal(b1-3)GlcNAc(b1-2)Man
Method in brief: as §1

[18] = molecular target: Gal(b1-3)GlcNAc(b1-2)Man(a1-3)[Gal(b1-3)GlcNAc(b1-2)Man(a1-6)]Man(b1-4)GlcNAc(b1-4)GlcNAc
Method in brief: as §1

[19] = molecular target: Gal(b1-3)GlcNAc(b1-2)Man(a1-3)[Gal(b1-3)GlcNAc(b1-2)Man(a1-6)]Man(b1-4)GlcNAc(b1-4)[Fuc(a1-6)]GlcNAc
Method in brief: as §1

[20] = molecular target: Gal(b1-3)GlcNAc(b1-2)Man(a1-3)[GlcNAc(b1-4)][Gal(b1-3)GlcNAc(b1-2)Man(a1-6)]Man(b1-4)GlcNAc(b1-4)GlcNAc
Method in brief: as §1

[21] = molecular target: Gal(b1-3)GlcNAc(b1-2)[Gal(b1-3)GlcNAc(b1-6)]Man(a1-6)[Gal(b1-3)GlcNAc(b1-2)Man(a1-3)]Man(b1-4)GlcNAc(b1-4)GlcNAc
Method in brief: as §1

[22] = molecular target: Gal(b1-3)GlcNAc(b1-3)Gal(b1-3)GlcNAc
Method in brief: as §1

[23] = molecular target: Gal(b1-3)GlcNAc(b1-3)Gal(b1-4)Glc
Method in brief: as §1

[24] = molecular target: Gal(b1-3)GlcNAc(b1-3)Gal(b1-4)GlcNAc
Method in brief: as §1

[25] = molecular target: Gal(b1-3)GlcNAc(b1-3)Gal(b1-4)GlcNAc(b1-2)Man(a1-3)[Gal(b1-3)GlcNAc(b1-3)Gal(b1-4)GlcNAc(b1-2)Man(a1-6)]Man(b1-4)GlcNAc(b1-4)GlcNAc
Method in brief: as §1

[26] = molecular target: Gal(b1-3)GlcNAc(b1-3)Gal(b1-4)GlcNAc(b1-2)[Gal(b1-3)GlcNAc(b1-3)Gal(b1-4)GlcNAc(b1-6)]Man(a1-6)[Gal(b1-3)GlcNAc(b1-3)Gal(b1-4)GlcNAc(b1-2)Man(a1-3)]Man(b1-4)GlcNAc(b1-4)[Fuc(a1-6)]GlcNAc
Method in brief: as §1

[27] = molecular target: Gal(b1-3)GlcNAc(b1-3)Gal(b1-4)GlcNAc(b1-3)Gal(b1-4)GlcNAc(b1-2)[Gal(b1-3)GlcNAc(b1-3)Gal(b1-4)GlcNAc(b1-3)Gal(b1-4)GlcNAc(b1-6)]Man(a1-6)[Gal(b1-3)GlcNAc(b1-3)Gal(b1-4)GlcNAc(b1-3)Gal(b1-4)GlcNAc(b1-2)Man(a1-3)]Man(b1-4)GlcNAc(b1-4)[Fuc(a1-6)]GlcNAc
Method in brief: as §1

[28] = molecular target: Gal(b1-3)GlcNAc(b1-3)Gal(b1-4)GlcNAc(b1-6)[Gal(b1-3)GlcNAc(b1-3)]Gal(b1-4)Glc
Method in brief: as §1

[29] = molecular target: Gal(b1-3)GlcNAc(b1-3)Gal(b1-4)[Fuc(a1-3)]GlcNAc
Method in brief: as §1

[30] = molecular target: Gal(b1-3)GlcNAc(b1-3)Gal(b1-4)[Fuc(a1-3)]GlcNAc(b1-6)[Gal(b1-3)GlcNAc(b1-3)]Gal(b1-4)Glc
Method in brief: as §1

[31] = molecular target: Gal(b1-3)GlcNAc(b1-3)GalNAc
Method in brief: as §1

[32] = molecular target: Gal(b1-3)GlcNAc(b1-6)Gal(b1-4)GlcNAc
Method in brief: as §1

[33] = molecular target: Gal(b1-3)GlcNAc(b1-6)GalNAc
Method in brief: as §1

B1: PX14375F-bfa-539-21-539 (Bacteroides fragilis) (protein)
chain: EDFLQKDPPSSPSQSVFWQKKSDFESALAGTYSVMYSGVFSQIMPCLDGLTDNAIVQHSEGTYGWAKTIAQGDLTPNQGGFVTDIYGNCYKGIARVHILMEQLDQYTGSDISADEKKFMLAQCKALRGYFYSWLYQCYKEVPVVTQSLDLNTMYQPKATRAEVLNRVMTDYDEAISELPDKLYSDSQTSGRFTVSAVKALKARILLFDAYDSNGKAISSKMEEVLTLLQSIKGYSLAARVRDNFISEKQLASPEIMFSVRFLRPNLTHSMDLYYGAWAVLDPTRNMVDAFECTDGKPWGESPLTVRPDESILYGNDDALKKAERAKMFMNRDRRLYESVNHSMMANFVDDGFKDEEVQVNESNNKGPTGFSALKYVQPTDVTPGYSTVSDADIVVLRYAHVLLMIAEAENEAHGATTTALNAINEVRTRSGQPAIEAGISQDDLRERIRNEWRIETCFEGLRYFQLKRWKLMDKRVNGVEDPAYPGYIKVYKPAFEFFPIPQSEIDKAGGVLKQDPAYE
B1 was tested, and the “glycan array binding signal (z-score)” value [1] was -0.187, the “glycan array binding signal (z-score)” value [2] was 0.78 and the “glycan array binding signal (z-score)” value [3] was -0.25. For the same binder, the “glycan array binding signal (z-score)” value [4] was -0.184, the “glycan array binding signal (z-score)” value [5] was -0.104 and the “glycan array binding signal (z-score)” value [6] was -0.52. The “glycan array binding signal (z-score)” value (Gal(a1-3)GalNAc) was -0.197, the “glycan array binding signal (z-score)” value [7] was 3.97 and the “glycan array binding signal (z-score)” value [8] was -0.572. The “glycan array binding signal (z-score)” value (Gal(a1-4)Gal(b1-4)Glc) was -0.195, the “glycan array binding signal (z-score)” value (Gal(a1-4)Gal(b1-4)GlcNAc) was 0.607 and the “glycan array binding signal (z-score)” value [9] was 0.334. The “glycan array binding signal (z-score)” value [10] was 0.15, the “glycan array binding signal (z-score)” value (Gal(a1-4)GlcNAc) was -0.504 and the “glycan array binding signal (z-score)” value (Gal(a1-6)Glc) was -1.11. The “glycan array binding signal (z-score)” value (Gal(b1-2)Gal) was 0.071, the “glycan array binding signal (z-score)” value (Gal(b1-3)Gal) was 0.178 and the “glycan array binding signal (z-score)” value (Gal(b1-3)Gal(b1-4)GlcNAc) was 0.901. For the same binder, the “glycan array binding signal (z-score)” value (Gal(b1-3)GalNAc) was -0.151, the “glycan array binding signal (z-score)” value [11] was -0.372 and the “glycan array binding signal (z-score)” value [12] was -0.104. The “glycan array binding signal (z-score)” value (Gal(b1-3)GalNAc(b1-3)Gal) was 0.119, the “glycan array binding signal (z-score)” value [13] was -0.705 and the “glycan array binding signal (z-score)” value [14] was -0.503. For the same binder, the “glycan array binding signal (z-score)” value [15] was -0.415, the “glycan array binding signal (z-score)” value (Gal(b1-3)GlcNAc) was -0.235 and the “glycan array binding signal (z-score)” value [16] was -0.727. The “glycan array binding signal (z-score)” value [17] was -0.417, the “glycan array binding signal (z-score)” value (Gal(b1-3)GlcNAc(b1-2)Man) was -0.06 and the “glycan array binding signal (z-score)” value [18] was 0.106. The “glycan array binding signal (z-score)” value [19] was 1.23, the “glycan array binding signal (z-score)” value [20] was 0.218 and the “glycan array binding signal (z-score)” value [21] was -0.343. The “glycan array binding signal (z-score)” value [22] was -0.334, the “glycan array binding signal (z-score)” value [23] was 0.015 and the “glycan array binding signal (z-score)” value [24] was -0.365. The “glycan array binding signal (z-score)” value [25] was -0.069, the “glycan array binding signal (z-score)” value [26] was 0.153 and the “glycan array binding signal (z-score)” value [27] was 2. The “glycan array binding signal (z-score)” value [28] was -0.107, the “glycan array binding signal (z-score)” value [29] was -0.084 and the “glycan array binding signal (z-score)” value [30] was -0.522. The “glycan array binding signal (z-score)” value [31] was -0.912, the “glycan array binding signal (z-score)” value [32] was 0.171 and the “glycan array binding signal (z-score)” value [33] was 0.066.
